# From PubChem BioAssay (Tox21)
# Several values for one entry are separate records, joined by “and”; a condition that tells them apart may be missing. Identical values can stand only once. This list was built around the results that the source calls inconclusive (neither active nor inactive); the mix of calls is not that of the screen. A potency beside an inconclusive call is a rough fit, not a confirmed value. The source holds several records for some structures; these can differ, active in one and inactive in another. Activity calls are given as the source filed them. Calls follow the shape of the dose curve; as a rule, active = well fitted curve in the direction sought with a large enough effect in the repeat runs; inconclusive = weak or mixed curves; inactive = no such curve, though single readings can be large; an effect the other way counts as inactive or inconclusive.
# Experiments:
# [1] = qHTS RealTime-Glo MT Cell Viability Assay in HEK293 cells - 0 hour (AID 1224880); also: nearly all actives have a fitted effect of over 45% in size
# Procedure, shortened: (§1)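 Real-time viability in HEK293: signal arises when living cells convert a prosubstrate for NanoLuc in the medium, so luminescence tracks viable cell number. Compound (23 nL, DMSO) added 5 h post-seeding; kinetic reads at 0–40 h, 37 C.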
# [2] = A CellTox Green Cytotoxicity Assay to monitor cytotoxicity in HepG2 cells - 0 hour (AID 1224882); also: nearly all actives have a fitted effect of over 35% in size
# Procedure, shortened: (§2)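 Cells and non-lytic dye reagent are dispensed together (600 HepG2 cells/well) and incubated 5 h before DMSO compound transfer. Kinetic fluorescence is then recorded in the same wells during 40 h at 37 C.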
# [3] = A CellTox Green Cytotoxicity Assay to monitor cytotoxicity in HEK293 cells - 8 hour (AID 1224884); also: nearly all actives have a fitted effect of over 35% in size
# Procedure, shortened: (§3)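 Cells (HEK293, 600/well) and dye reagent are dispensed together. After 5 h at 37 C, 23 nL compound is pinned in. Plates stay at 37 C for 40 h with fluorescence read at 0h, 8h, 16h, 24h, 32h and 40h.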
# [4] = A CellTox Green Cytotoxicity Assay to monitor cytotoxicity in HepG2 cells - 32 hour (AID 1224883); also: nearly all actives have a fitted effect of over 50% in size
# Procedure, shortened: as §2
# [5] = qHTS RealTime-Glo MT Cell Viability Assay in HEK293 cells - 24 hour (AID 1224886); also: nearly all actives have a fitted effect of over 50% in size
# Procedure, shortened: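 Luminescence generated by NanoLuc from substrate produced by living HEK293 cells served as the viability signal. Each value reflects the reading at its stated time point during continuous 40 h compound exposure at 37 C.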
# [6] = qHTS RealTime-Glo MT Cell Viability Assay in HEK293 cells - 8 hour (AID 1224887); also: nearly all actives have a fitted effect of over 50% in size
# Procedure, shortened: as §1
# [7] = A CellTox Green Cytotoxicity Assay to monitor cytotoxicity in HEK293 cells - 32 hour (AID 1224881); also: nearly all actives have a fitted effect of over 40% in size
# Procedure, shortened: as §3
# [8] = qHTS RealTime-Glo MT Cell Viability Assay in HepG2 cells - 16 hour (AID 1224885); also: nearly all actives have a fitted effect of over 50% in size
# Procedure, shortened: (§4)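 Tox21 10K library screened in qHTS format on HepG2 cells carrying RealTime-Glo reagents. Compounds were added after a 5 h preincubation, and the luminescent signal from continuous culture was measured repeatedly during 40 h treatment.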
# [9] = A CellTox Green Cytotoxicity Assay to monitor cytotoxicity in HEK293 cells - 16 hour (AID 1224888); also: nearly all actives have a fitted effect of over 35% in size
# Procedure, shortened: as §3
# [10] = qHTS RealTime-Glo MT Cell Viability Assay in HepG2 cells - 0 hour (AID 1224889); also: nearly all actives have a fitted effect of over 50% in size
# Procedure, shortened: as §4
# Potency is read from the fitted curve at half-maximal effect; tags tell the direction and shape of the fitted curve.
smiles,measurement,setting,value
CCCCCCCCCCCCN1CCOCC1,Potency,[1],"inconclusive: 97.7 µM [rising, single point]"
CC1=CC2C3CC(C=C3C)C2C1 (configuration not stated),Potency,[1],"inconclusive: 61.6 µM [falling, partial curve, poor fit]"
same,Potency,[2],active: 27.5 µM
same,Potency,[3],active: 43.6 µM
Cc1ccc(O)c(N)c1,Potency,[1],"inconclusive: 49 µM [falling, single point]"
same,Potency,[4],"inconclusive: 55 µM [activator, single point]"
same,Potency,[5],"inconclusive: 61.7 µM [cytotoxic, single point]"
same,Potency,[6],"inconclusive: 39 µM [cytotoxic, partial curve]"
OCCN1CCN(CCCN2c3ccccc3Sc3ccc(C(F)(F)F)cc32)CC1,Potency,[1],"inconclusive: 13.4 µM [rising, partial curve, poor fit]"
same,Potency,[7],"inconclusive: 26.8 µM [activator, single point]"
same,Potency,[8],"inconclusive: 26.8 µM [cytotoxic, single point]"
same,Potency,[5],active: 23.9 µM
same,Potency,[6],"inconclusive: 23.9 µM [cytotoxic, single point]"
same,Potency,[9],active: 26.8 µM
C[C@]12CCC(=O)C=C1CC[C@@H]1[C@@H]2[C@@H](O)C[C@@]2(C)[C@H]1CC[C@]2(O)C(=O)COC(=O)CCC(=O)O,Potency,[1],active: 10.7 µM
same,Potency,[7],inactive
same,Potency,[10],active: 3.38 µM
NNC(=O)OCc1ccccc1,Potency,[1],"inconclusive: 0.49 µM [falling, single point]"
C/C=C1/C(=O)C[C@H]2[C@@H]3CCC4=CC(=O)CC[C@]4(C)[C@H]3CC[C@]12C,Potency,[1],"inconclusive: 7.74 µM [falling, full curve]"
same,Potency,[4],active: 48.8 µM
same,Potency,[8],"inconclusive: 54.8 µM [cytotoxic, partial curve, poor fit]"
same,Potency,[10],active: 0.435 µM
Cc1cnc(NC(=O)C2=C(O)c3ccccc3S(=O)(=O)N2C)s1,Potency,[1],"inconclusive: 54.9 µM [falling, partial curve]"
same,Potency,[10],"inconclusive: 27.5 µM [cytotoxic, partial curve]"
O=C(O)Cc1cc(I)c(Oc2ccc(O)c(I)c2)c(I)c1,Potency,[1],"inconclusive: 34.7 µM [falling, partial curve]"
same,Potency,[10],"inconclusive: 38.9 µM [cytotoxic, partial curve]"
C[C@@H]1C[C@H]2O[C@@]3(O[C@@H]2C(C)(C)O)[C@H](O)[C@@]2(C)[C@@H]4CC[C@H]5C(C)(C)[C@@H](O[C@@H]6OC[C@@H](O)[C@H](O)[C@H]6O)CC[C@@]56C[C@@]46CC[C@]2(C)[C@@H]13,Potency,[1],"inconclusive: 2.42 µM [falling, full curve]"
same,Potency,[6],inactive
same,Potency,[9],inactive
same,Potency,[10],active: 2.16 µM
CCCCCCCCCCCC[N+](C)(C)Cc1ccccc1,Potency,[1],"inconclusive: 59.7 µM [rising, partial curve, poor fit]"
same,Potency,[7],active: 38.1 µM and active: 29.9 µM and active: 23.9 µM
same,Potency,[3],"inconclusive: 53.9 µM [activator, single point] and inconclusive: 26.8 µM [activator, single point]"
same,Potency,[8],active: 21.5 µM and active: 23.8 µM and active: 12 µM
same,Potency,[6],"active: 53.9 µM and active: 59.7 µM and inconclusive: 9.52 µM [cytotoxic, partial curve]"
same,Potency,[10],"inconclusive: 53.9 µM [cytotoxic, partial curve, poor fit]"
O=C(N/N=C/c1ccc([N+](=O)[O-])o1)c1ccc(O)cc1,Potency,[1],"inconclusive: 10.7 µM [rising, single point]"
same,Potency,[7],"inconclusive: 15.1 µM [activator, single point]"
same,Potency,[4],"inconclusive: 26.8 µM [activator, single point]"
same,Potency,[8],"inconclusive: 26.8 µM [cytotoxic, single point]"
same,Potency,[5],"inconclusive: 10.7 µM [cytotoxic, partial curve, poor fit]"
same,Potency,[6],"inconclusive: 21.3 µM [cytotoxic, single point]"
CC1(C)CCC(C)(C)c2cc(C(=O)Nc3ccc(C(=O)O)cc3)ccc21,Potency,[1],"inconclusive: 24.5 µM [falling, partial curve]"
same,Potency,[7],"inconclusive: 54.9 µM [activator, single point]"
same,Potency,[4],"inconclusive: 61.6 µM [activator, single point]"
same,Potency,[3],"inconclusive: 61.6 µM [activator, single point]"
same,Potency,[10],"inconclusive: 49 µM [cytotoxic, partial curve]"
O=c1cc(-c2ccc(O)cc2)oc2cc(O)cc(O)c12,Potency,[1],"inconclusive: 39.4 µM [falling, partial curve]"
same,Potency,[7],"inconclusive: 34.7 µM [activator, partial curve]"
same,Potency,[2],"inconclusive: 38.9 µM [activator, partial curve]"
same,Potency,[4],active: 38.9 µM
same,Potency,[3],"inconclusive: 24.5 µM [activator, partial curve, poor fit]"
same,Potency,[5],"inconclusive: 55.7 µM [cytotoxic, single point] and inconclusive: 24.5 µM [cytotoxic, partial curve]"
same,Potency,[10],inactive
CN(C)c1ccc(C(=C2C=CC(=[N+](C)C)C=C2)c2ccc(N(C)C)cc2)cc1,Potency,[1],"inconclusive: 1.94 µM [falling, partial curve, poor fit]"
same,Potency,[7],"inconclusive: 19.4 µM [activator, partial curve, poor fit] and inconclusive: 10.7 µM [activator, partial curve]"
same,Potency,[8],"active: 21.8 µM and active: 24.5 µM and inconclusive: 10.7 µM [cytotoxic, partial curve]"
same,Potency,[6],"inconclusive: 9.52 µM [cytotoxic, partial curve]"
same,Potency,[10],"inconclusive: 38.7 µM [cytotoxic, partial curve]"
CNCc1cc(F)ccc1Oc1ccc(Cl)c(Cl)c1,Potency,[1],"inconclusive: 27.5 µM [rising, partial curve]"
same,Potency,[8],active: 49 µM
same,Potency,[6],"inconclusive: 43.6 µM [cytotoxic, partial curve]"
same,Potency,[9],"inconclusive: 54.9 µM [activator, single point]"
same,Potency,[10],"inconclusive: 17.4 µM [rising, partial curve, poor fit]"
O=C1Nc2cc(Cl)ccc2Oc2ccccc21,Potency,[1],inactive
O=C(O)Cn1c(C(=O)Nc2nc(-c3ccccc3Cl)cs2)cc2ccccc21,Potency,[1],"inconclusive: 23.9 µM [falling, partial curve]"
same,Potency,[3],"inconclusive: 26.8 µM [activator, single point]"
same,Potency,[10],"inconclusive: 23.9 µM [cytotoxic, single point]"
C/C(=C\C(C)CC(C)CC(C)C)C1CC(=O)OC1=O (configuration not stated),Potency,[1],inactive
CC(C(=O)O)c1ccc(-c2ccccc2)c(F)c1 (configuration not stated),Potency,[7],inactive
O=C(O)c1cc(N=Nc2ccc([N+](=O)[O-])cc2)ccc1O,Potency,[1],"inconclusive: 48.1 µM [falling, partial curve, poor fit]"
Cc1cc(=O)oc2cc(N(C)C)ccc12,Potency,[1],inactive
same,Potency,[8],"inconclusive: 24.5 µM [cytotoxic, partial curve]"
same,Potency,[5],"inconclusive: 61.6 µM [cytotoxic, single point]"
O=C1Nc2ccccc2C1(c1ccc(O)cc1)c1ccc(O)cc1,Potency,[1],"inconclusive: 54.9 µM [falling, single point]"
same,Potency,[5],"inconclusive: 54.9 µM [cytotoxic, single point]"
same,Potency,[6],"inconclusive: 61.6 µM [cytotoxic, single point]"
same,Potency,[10],"inconclusive: 54.9 µM [cytotoxic, single point]"
CC(C)Nc1cccnc1N1CCN(C(=O)c2cc3cc(NS(C)(=O)=O)ccc3[nH]2)CC1,Potency,[1],active: 9.52 µM
same,Potency,[10],active: 3.38 µM
Fc1ccc(C(c2ccc(F)cc2)N2CCNCC2)cc1,Potency,[1],"inconclusive: 6.74 µM [rising, partial curve, poor fit]"
C=C(C)C(=O)OCCCCCCCCCCOC(=O)C(=C)C,Potency,[1],inactive
COC(=O)C1=C(C)NC(C)=C(C(=O)OCCN(C)Cc2ccccc2)C1c1cccc([N+](=O)[O-])c1 (configuration not stated),Potency,[1],active: 5.46 µM and active: 6.01 µM
same,Potency,[8],active: 24.4 µM and active: 10.7 µM
same,Potency,[5],active: 21.7 µM and active: 19 µM
same,Potency,[6],active: 24.4 µM and active: 19 µM
same,Potency,[10],active: 6.13 µM and active: 3.38 µM
Clc1ccc2c(c1)CCc1cccnc1C2=C1CCNCC1,Potency,[1],"inconclusive: 26.8 µM [rising, single point]"
same,Potency,[7],"inconclusive: 26.8 µM [activator, single point]"
same,Potency,[4],active: 23.9 µM
same,Potency,[5],"inconclusive: 8.49 µM [cytotoxic, full curve, poor fit]"
COC(=O)[C@@H](N)Cc1ccc(O)c(O)c1,Potency,[1],inactive
CC(NCCC(c1ccccc1)c1ccccc1)c1ccccc1 (configuration not stated),Potency,[1],"inconclusive: 10.7 µM [rising, full curve]"
same,Potency,[7],active: 21.3 µM
same,Potency,[6],active: 21.3 µM
same,Potency,[9],active: 21.3 µM
Clc1ccc2cc3ccccc3cc2c1,Potency,[1],"inconclusive: 61.6 µM [rising, partial curve]"
same,Potency,[4],"inconclusive: 54.9 µM [activator, single point]"
same,Potency,[5],"inconclusive: 61.6 µM [rising, single point]"
same,Potency,[6],"inconclusive: 61.6 µM [rising, single point]"
CN1CCC(=C2c3ccccc3CCc3sccc32)CC1,Potency,[1],"inconclusive: 26.8 µM [rising, partial curve]"
same,Potency,[4],active: 23.9 µM
